Results reported in PubChem BioAssay AID1508623 (National Center for Advancing Translational Sciences (NCATS), 2021).
Out of some 48,000 compounds screened, about 450 (0.94%) were called active. About 19% were inconclusive and are not listed. Calls come from the whole dose curve; as a rule, active = well fitted inhibition curve with a large enough effect; inconclusive = small, poorly fitted or top-dose-only effect; inactive = no such curve, though single readings can be large or run the other way. Some of the results follow.

Assay: Primary qHTS for Identification of Small Molecule Inhibitors of Huntingtin Promoter Activity; note: nearly all actives have a fitted effect of over 50% in size
Settings: HEK293 HTT promoter firefly luciferase reporter (activity 0% = vehicle and -100% = no light), 24 h; series mostly up to 57.5 µM; activity change, negative = inhibition: at the top concentration
How it was run: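 Firefly luciferase signal from promoter-reporter HEK293 cells was scaled between vehicle (0%) and zero RLU (-100%). Compounds were tested at final concentrations of up to 57.5 uM over 24 h at 37 degrees C. PTC124 at 50 uM final served as control inhibitor.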

Activity change, negative = inhibition, inactive:
Cc1ccc(Cl)cc1N1CCN(c2nc3ccc(C(=O)c4ccccc4)cc3n3cnnc23)CC1 -23.3%
COc1ccc(CNC(=O)c2ccc(CN3C(=O)C(C)=C(c4ccc(C)cc4)S3(=O)=O)cc2)cc1 -24.9%
Cc1ccc(-n2ncc(C(=O)Nc3ccc4c(c3)OCCO4)c2C2CCN(C(=O)OC(C)(C)C)CC2)cc1C -5.05%
CC1=C(C(=O)NCc2cccc(F)c2)C2(CCCCCC2)OC1=O -6.22%
COc1ccc(CNC(=O)c2cc(-c3ccc(Br)s3)nc3ccccc23)c(OC)c1 -19.4%
COc1ccc(Nc2nc3ccc(C)cc3nc2-n2nc(C)cc2C)cc1Cl -5.33%
COCCN1CCc2nc(SCC(=O)Nc3ccc(C)c(Cl)c3)[nH]c(=O)c2C1 0.714%
CCOc1ccccc1CNC(=O)Cn1c(=O)c2cccn2c2ccc(F)cc21 -2.71%
COc1ccc(-c2onc(C)c2C)cc1S(=O)(=O)NCc1cccs1 -17%
CCOC(=O)c1noc2ncn(CC(=O)Nc3ccc(F)cc3Cl)c(=O)c12 -5.19%
CC1=C(C(=O)OCc2ccc(C)cc2)C(c2ccccc2C(F)(F)F)CC(=O)N1 (stereo not given) -28.4%
CC1CCCCN1Cc1c(O)ccc2c(=O)c(-c3ccc(Cl)cc3)c(C(F)(F)F)oc12 (stereo not given) -18.6%
Cc1ccc(OCCSc2nc3ccccc3n2CC(=O)N2CCOCC2)cc1 -8.41%
CCOC(=O)c1sc2ncn(CC(=O)Nc3ccc(F)cc3F)c(=O)c2c1C -7.2%
COC(=O)c1c(NC(=O)c2ccc(Cl)c(Cl)c2)sc2c1CCCC2 8.51%
CCOc1ccc(NC(=O)CSc2nnc3scc(-c4ccccc4)n23)cc1 -31.7%
Nc1cc(C(F)(F)F)ccc1S -2.74%
O=C1CC[C@@H](C(=O)O)N1 4.78%
CCc1ccccc1NC(=O)c1cc(-c2ccc(Cl)s2)nc2ccccc12 -20.7%
COc1ccc(OC)c(CNC(=O)CCCn2c(=O)c3cccn3c3cccnc32)c1 -11.4%
COc1ccccc1-c1nnc(C2CCN(C(=O)c3ccccc3C)CC2)o1 -16.9%
Cc1cccc(-n2c(C)cc(C(=O)C(=O)Nc3nncs3)c2C)c1 5.85%
CCOC(=O)CSc1nc2ccc(NC(=O)c3ccc(Cl)cc3)cc2s1 12.4%
Cc1cc2c(cc1C1(c3ccc(C(=O)O)cn3)CC1)C(C)(C)CCC2(C)C -3.37%
COC(=O)c1ccc(NC(=O)C2CCN(c3ncnc4c3nc3n4CCCCC3)CC2)cc1 6.19%
Cc1cc(C)cc(NC(=O)CSc2c(C(C)C)cnc3c2c(=O)n(C)c(=O)n3C)c1 -6.71%
Cc1cc(Nc2nc3ccccc3c3nnc(C)n23)ccc1Br -22.2%
Cc1cc(C)cc(Nc2cc(C(=O)NC3CCCCC3)c3ccccc3n2)c1 -10.3%
CCOC(=O)c1ccccc1NC(=O)CSc1nnc(CC)n2c1cc1occc12 -8.19%
CCCCc1ccc(C(=O)Nc2ccc3nc(N4CCN(CC)CC4)cc(C)c3c2)cc1 -1.86%
Fc1ccc(-c2cc3ncc4c(n3n2)-c2cc(Cl)ccc2OC4)cc1 -0.951%
O=C(O)CNC(=O)c1ccccc1 1.25%
Cc1ccccc1Nc1ncnc2c1cnn2C -6.43%
Cc1ccccc1OCC(=O)Nc1ccc(-c2nc3ncccc3o2)cc1 62.9%
CCCCN(CC)CCNC(=O)c1cc2c(=O)[nH]c3ccccc3c2n1C -3.89%
O=C(NCc1ccc(F)cc1)c1ccc2c(O)c(S(=O)(=O)c3ccccc3)c(=O)[nH]c2c1 5.97%
Cc1ccccc1NS(=O)(=O)c1ccc2[nH]cc(C(=O)N3CCCCC3)c(=O)c2c1 -11.8%
COc1ccc(C)cc1-n1nnc(-c2nc(-c3ccccc3Cl)no2)c1N 2.42%
CCCc1nc2ccccc2n2c(-c3ccccc3)c3c(=O)n(C)c(=O)n(C)c3c12 -18.6%
Cc1ccccc1CN1C(=O)c2ccccc2Sc2ccc(C(=O)N3CCCC3)cc21 -17.9%
CCN(C(=O)c1coc(=O)c2ccccc12)c1ccccc1C -9.7%
CC(C)c1ccc(C(=O)Nc2cc(-c3ccccc3F)nn2-c2ccccc2)cc1 -39%
Cc1ccc(-c2nnn3c2nc(NCCc2ccc(Cl)cc2)c2ccccc23)cc1 -6.36%
CCCOc1ccc(CNC(=O)Cn2ncn3c(cc4sc(CC)cc43)c2=O)cc1 -1.11%
O=C(c1ccc(C=Cc2n[nH]c3ccccc23)cc1)N1CCNCC1 18.1%
Cc1c(C(=O)N2CCCCCC2)c(S(=O)(=O)NCc2ccc(Br)cc2)c(C)n1C -15.7%
Cc1ccc(-c2nc3ccccn3c2Nc2ccccc2C)s1 -0.667%
CCOc1ccc(CNC(=O)c2ccc3nc(C(C)C)oc3c2)cc1 1.1%
COC(=O)c1ccc(NC(=O)NCCn2nnc3cc(S(=O)(=O)N(C)C)ccc32)cc1 -20.9%
COc1ccc(Nc2cc(C(=O)NC3CCC(C)CC3)c3ccccc3n2)cc1OC (stereo not given) 12.8%
Cn1c(=O)c(=O)n(C)c2cc(S(=O)(=O)CCC(=O)Nc3ccc(F)cc3)ccc21 -19.8%
Cc1oc2ncnc(N3CCOCC3)c2c1C(=O)N(Cc1ccccc1)C(C)C -8.63%
COc1ccc(OC(=O)c2nc(SCc3ccc(F)cc3)ncc2Cl)cc1 -3.56%
Cc1ccc(C2=NN(CC(=O)NCCC(C)C)C(=O)CC2)cc1 -9.84%
CCOC(=O)c1cc(OC(=O)c2ccc(C)cc2)n(-c2ccccc2)n1 -5.26%
COc1cccc(-c2nnc(-c3ccccc3NC(=O)c3cccc(C(F)(F)F)c3)o2)c1 -0.374%
COc1ccc(NC(=O)c2ccco2)cc1NC(=O)COc1ccccc1 -12.9%
CCOC(=O)c1ccc(NC(=O)c2c(NCc3cccs3)sc3c2CCCC3)cc1 -31%
CCc1ccc(S(=O)(=O)c2cn(C)c3cc(N4CCC(C)CC4)c(F)cc3c2=O)cc1 -13.8%
Cn1c(=O)n(C)c2cc(N3CCOCC3)c(NC(=O)c3ccccc3Br)cc21 -4.46%
COc1ccc(CNC(=O)CN2C(=O)CSc3ccc(S(=O)(=O)N4CCOCC4)cc32)c(OC)c1 -1.74%
COc1cccc(CNC(=O)c2cc(S(=O)(=O)N3CCCCC3)cn2C)c1 -11.1%
CC(=O)Nc1ccc(NC(=O)CSc2nc3ccccc3nc2N2CCC(C)CC2)cc1 -29.7%
COc1ccc(NC(=O)C(Cc2ccccc2)n2cccc2)cc1OC (stereo not given) -18.9%
Cc1ccccc1Cn1c2ccccc2c2cnn(CC(=O)NCCc3ccccc3)c(=O)c21 12%
